In PubChem BioAssay (NCI):
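Compound exposure: 48 hours, 5 concentrations, 96-well plates. Here, GI50 denotes the concentration required for 50% inhibition of growth. TGI marks complete inhibition of growth.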

Tested on: NCI-H322M lung
Assay: NCI tumour cell line growth inhibition, 48 h

Row | Compound | GI50 [µM] | TGI [µM]
1 | FC(F)(F)CN1CCN(CCn2c(C(F)(F)F)cc3c(Cl)ncnc32)CC1 | 5.53 | 19.1
2 | O=C(/C=C/c1cccc(OCc2ccccc2)c1)c1nc2ccccc2[nH]1 | 27.7 | > 100
3 | Cn1cc(-c2cc(N)n3nc(-c4cn(C)c5ccccc45)cc3n2)c2cc(Cl)ccc21 | 5.14 | 28.9
4 | C=C1CCC2C3(C)COC(c4ccc(F)cc4)OC3CCC2(C)C1C/C=C1/C(=O)OCC1O (configuration not stated) | 4.6 | 16.8
5 | O=c1[nH]c2ccccc2cc1CSc1ccc(Nc2nccc(-c3ccc(Cl)cc3)n2)cc1 | 1.42 | 3.96
6 | CN(C)CCOc1ccc(C(=O)C2[C@H](c3ccc(Cl)cc3)[C@@H](c3ccccc3)NC23C(=O)Nc2ccccc23)cc1 (some centres not stated) | 11 | > 18.5
